For orientation: MBC means the lowest tested concentration that kills the bacteria rather than only halting them. A low value points to greater bactericidal potency. By MIC is commonly meant the lowest concentration that inhibits growth of the organism. Low readings indicate inhibition by little substance, high ones a need for much substance.

For test [1], the system named is Pseudomonas aeruginosa PA7. Briefly: MBC (minimum bactericidal concentration).
Test [2] relates to Pseudomonas aeruginosa PA01.
Test [3] has as its system Pseudomonas aeruginosa PA7.
The test system of test [4] is Pseudomonas aeruginosa PA01. Briefly: MBC (minimum bactericidal concentration).

For the molecule `C[PH](C)(C)[Au][S]CCO` [MS-40, 2-mercaptoethanolatotrimethylphosphine gold(I)], the MBC in test [1] was 64 µg/mL; in test [4] it was 128 µg/mL. For the same molecule, the values for the MIC in test [2] and in test [3] were 16 µg/mL and 32 µg/mL, respectively.

As to `CC(O)C[S][Au-][P+](C)(C)C` (centres unmarked) [MS-40S], the minimum bactericidal concentration (MBC) in test [1] is 128 µg/mL; in test [4], 256 µg/mL. Moreover, the figures for the MIC in test [2] and in test [3] were 32 µg/mL and 64 µg/mL, respectively.

Source of the values: publication PMC8697972, “New Auranofin Analogs with Antibacterial Properties against Burkholderia Clinical Isolates” (Antibiotics, 2021).
